One assay concerns HSkMC. Briefly: cytotoxicity call (relative viability < 0.9). The following applies: 10 µM.
The next assay deals with HepG2. Nature of the assay: cytotoxicity call (relative viability < 0.9). The conditions noted are these: 10 µM.
In another assay the test system is S. aureus RN4220. Nature of the assay: growth inhibition call (relative growth <= 0.2). The following applies: 50 µM.

Some of the results follow.

Regarding `C[C@H]1CN([C@@H](C)CO)S(=O)(=O)c2ccc(C#Cc3ccccc3F)cc2O[C@H]1CN(C)CC1CCOCC1`, the cytotoxicity call in the assay on HSkMC and in the assay on HepG2 was “inactive” in each case. Further, the growth inhibition call in the assay with S. aureus RN4220 is “inactive”.

As for `CC(C)CC#Cc1ccc2c(c1)O[C@H](CN(C)C(=O)Cc1cccnc1)[C@H](C)CN([C@H](C)CO)S2(=O)=O`, the cytotoxicity call in the assay with HSkMC and in the assay on HepG2 was “inactive” in each case. Moreover, the growth inhibition call in the assay with S. aureus RN4220 is “inactive”.

For the compound `Oc1cc(C2CCCCC2)cc(C2CCCCC2)c1`, the cytotoxicity call in the assay on HSkMC and in the assay with HepG2 was “inactive” throughout. Besides, the growth inhibition call with S. aureus RN4220 was “active”.

On to `O=C(O)C(O)C(O)(Cc1ccc(O)cc1)C(=O)O` (centres undefined), for which the cytotoxicity call in the assay with HSkMC and with HepG2 was “inactive” throughout. The growth inhibition call in the assay on S. aureus RN4220 is “inactive”.

For `COc1ccc(S(=O)(=O)N(C)C[C@@H]2Oc3ccc(NS(=O)(=O)c4cn(C)cn4)cc3CC(=O)N([C@H](C)CO)C[C@@H]2C)cc1`, the cytotoxicity call in the assay on HSkMC and in the assay with HepG2 was “inactive” in each case. In addition, the growth inhibition call in the assay on S. aureus RN4220 was “inactive”.

For the compound `CN1CCN(C(=O)C[C@H]2CC[C@@H]3[C@@H](COc4ccc(NC(=O)C5CCCCC5)cc4C(=O)N3C)O2)CC1`, the cytotoxicity call with HSkMC and in the assay with HepG2 was “inactive” each time. In addition, the growth inhibition call with S. aureus RN4220 was “inactive”.

With `COc1c(O)cc2c(c1O)C1OC(CO)C(O)C(O)C1OC2=O` (centres undefined), the cytotoxicity call in the assay on HSkMC and in the assay with HepG2 was “inactive” in each case. Also, the growth inhibition call with S. aureus RN4220 is “inactive”.

In the case of `Cc1noc(C)c1NC(=O)N(C)C[C@H]1Oc2c(NC(=O)NC(C)C)cccc2C(=O)N([C@@H](C)CO)C[C@@H]1C`, the cytotoxicity call in the assay with HSkMC and in the assay with HepG2 was “inactive” in each case. The growth inhibition call in the assay on S. aureus RN4220 is “inactive”.

For the compound `O=C(Nc1cccc2cccnc12)[C@@H]1[C@H](c2ccc(Br)cc2)CC(=O)N1C(=O)OCc1ccccc1`, the cytotoxicity call in the assay with HSkMC and in the assay with HepG2 was “inactive” each time. Moreover, the growth inhibition call in the assay with S. aureus RN4220 is “inactive”.

`CS(=O)(=O)CCNCc1ccc(-c2ccc3ncnc(Nc4ccc(OCc5cccc(F)c5)c(Cl)c4)c3c2)o1`: the cytotoxicity call in the assay with HSkMC and with HepG2 was “active” in each case. In addition, in the assay on S. aureus RN4220, the growth inhibition call is “inactive”.

As to `C[C@@H]1CN([C@H](C)CO)C(=O)Cc2cc(N(C)C)ccc2O[C@H]1CN(C)S(=O)(=O)c1ccc(F)cc1`, the cytotoxicity call with HSkMC and in the assay with HepG2 was “inactive” in each case. For the same compound, in the assay on S. aureus RN4220, the growth inhibition call was “inactive”.

With `COC1C=COC2(C)Oc3c(C)c(O)c4c(O)c(c(C=NN5CCN(C)CC5)c(O)c4c3C2=O)NC(=O)C(C)=CC=CC(C)C(O)C(C)C(O)C(C)C(OC(C)=O)C1C` (centres undefined), the cytotoxicity call in the assay on HSkMC and with HepG2 was “inactive” each time. Also, in the assay with S. aureus RN4220, the growth inhibition call was “inactive”.

`CC(C)NC(=O)Nc1ccc2c(c1)C(=O)N([C@H](C)CO)C[C@H](C)[C@@H](CN(C)C(=O)Nc1ccccc1)OCCCC[C@@H](C)O2`: the cytotoxicity call in the assay with HSkMC and in the assay on HepG2 was “inactive” throughout. Also, the growth inhibition call in the assay on S. aureus RN4220 is “inactive”.

Turning to `CO[C@@H]1[C@@H](O)[C@H](O)[C@H](O)[C@H](O)[C@@H]1O`, the cytotoxicity call with HSkMC and with HepG2 was “inactive” throughout. The growth inhibition call in the assay on S. aureus RN4220 is “inactive”.

Consider `CC=Cc1ccc2n(c1=O)C[C@@H]1[C@@H](CO)[C@H](C(=O)NCCCN3CCOCC3)[C@H]2N1Cc1cocn1`, for which the cytotoxicity call with HSkMC and with HepG2 was “inactive” each time. The growth inhibition call in the assay with S. aureus RN4220 was “inactive”.

On to `COc1ccc(CN(C)C[C@H]2Oc3ccc(NC(=O)CCN4CCOCC4)cc3C(=O)N([C@H](C)CO)C[C@H]2C)cc1`, for which the cytotoxicity call in the assay on HSkMC and in the assay on HepG2 was “inactive” in each case. The growth inhibition call in the assay with S. aureus RN4220 was “inactive”.

As to `O=C(C[C@H]1C[C@@H]2c3cc(NS(=O)(=O)c4ccc(F)cc4)ccc3O[C@@H]2[C@@H](CO)O1)NCc1ccccn1`, the cytotoxicity call in the assay on HSkMC and in the assay with HepG2 was “inactive” throughout. Besides, the growth inhibition call with S. aureus RN4220 was “inactive”.

With `COc1ccc2c3c([nH]c2c1)[C@H](CO)N(Cc1ccc(cc1)Cl)C[C@]13CCN(CC1)Cc1nccs1`, the cytotoxicity call in the assay on HSkMC and in the assay on HepG2 was “inactive” in each case. In the assay with S. aureus RN4220, the growth inhibition call is “inactive”.

For the compound `O=C(C[C@H]1C=C[C@H](NS(=O)(=O)c2ccc(F)cc2)[C@@H](CO)O1)N1CCC(Cc2ccccc2)CC1`, the cytotoxicity call with HSkMC and in the assay on HepG2 was “inactive” throughout. The growth inhibition call in the assay on S. aureus RN4220 was “inactive”.

As to `C[C@H]1CN([C@@H](C)CO)C(=O)c2cccc(NC(=O)Nc3ccccc3)c2O[C@@H]1CN(C)Cc1ccc(-c2ccccc2)cc1`, the cytotoxicity call in the assay with HSkMC and in the assay on HepG2 was “inactive” in each case. Besides, the growth inhibition call with S. aureus RN4220 is “inactive”.

Consider `C[C@H]1CN([C@@H](C)CO)C(=O)c2c(c3ccccc3n2C)-c2ccccc2CO[C@@H]1CN(C)C(=O)Nc1cccc(F)c1`, for which the cytotoxicity call in the assay on HSkMC and in the assay on HepG2 was “inactive” throughout. For the same compound, the growth inhibition call in the assay on S. aureus RN4220 is “inactive”.

With `C[C@@H]1CCCCO[C@@H](CN(C)S(=O)(=O)c2ccccc2)[C@H](C)CN([C@H](C)CO)C(=O)c2cc(NS(=O)(=O)c3cn(C)cn3)ccc2O1`, the cytotoxicity call with HSkMC and in the assay on HepG2 was “inactive” each time. Moreover, the growth inhibition call in the assay with S. aureus RN4220 is “inactive”.

In the case of `Cc1ccc(S(=O)(=O)N(C)C[C@H]2OCCCC[C@H](C)Oc3ccc(NC(=O)CCC(F)(F)F)cc3C(=O)N([C@H](C)CO)C[C@H]2C)cc1`, the cytotoxicity call in the assay on HSkMC and with HepG2 was “inactive” each time. In addition, in the assay with S. aureus RN4220, the growth inhibition call was “inactive”.

Consider `NCC[C@H]1CC[C@H](NC(=O)C2CCCC2)[C@@H](CO)O1`, for which the cytotoxicity call in the assay with HSkMC and in the assay with HepG2 was “inactive” throughout. Moreover, the growth inhibition call with S. aureus RN4220 was “inactive”.

Consider `C[C@@H]1CCCCO[C@H](CN(C)C(=O)c2ccccc2)[C@H](C)CN([C@@H](C)CO)C(=O)c2cc(NS(=O)(=O)c3ccc(F)cc3)ccc2O1`, for which the cytotoxicity call in the assay on HSkMC (human skeletal muscle cells) and in the assay on HepG2 was “inactive” throughout. For the same compound, the growth inhibition call in the assay on S. aureus RN4220 is “inactive”.

As for `C[C@H]1CN([C@@H](C)CO)C(=O)c2cc(/C=C/c3ccccc3)cnc2O[C@@H]1CN(C)C(=O)Nc1ccc(C(F)(F)F)cc1`, the cytotoxicity call with HSkMC and in the assay on HepG2 was “inactive” each time. Moreover, in the assay on S. aureus RN4220, the growth inhibition call is “inactive”.

As for `CN(C)CCCCCCNC(=O)[C@H]1C[C@H]2C(=O)NCC(=O)N2[C@H]1c1cccc(OCCO)c1`, the cytotoxicity call with HSkMC and in the assay with HepG2 was “inactive” in each case. For the same compound, in the assay on S. aureus RN4220, the growth inhibition call was “inactive”.

As to `C[C@H]1CCCCO[C@H](CN(C)C(=O)Nc2ccccc2)[C@@H](C)CN([C@@H](C)CO)C(=O)c2cc(NS(=O)(=O)c3cccs3)ccc2O1`, the cytotoxicity call with HSkMC and in the assay on HepG2 was “inactive” each time. In addition, the growth inhibition call with S. aureus RN4220 was “inactive”.
